# The campaign covered roughly 110,000 compounds. About 40 (0.04%) were called active. Inconclusive results, whose numbers are uncertain, are shown with a selection of clear calls. Calls come from the whole dose curve; as a rule, active = well fitted curve in the direction sought with a large enough effect in the signal ratio (not every such curve was filed as active); inconclusive = small, poorly fitted or top-dose-only effect, or a change in a side signal; inactive = flat fitted curve, though single readings scatter; the % refers to the signal ratio. Potencies of inconclusive entries are doubtful fits and often do not repeat.
# Assay: IkB Signaling;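 for IkBa stabilization activation: 0% = basal untreated cells and 100% = reference inhibitor full response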
# Details: ABC-DLBCL IkBa-CBG/CBR dual luciferase ratio (green luciferase fused to IkBa over red control in OCI-Ly3 lymphoma cells), 4 h; IkBa stabilization activation: at 57.1 µM (top of the series), scaled: untreated 0%, proteasome inhibitor 100% unless noted
# In short: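 In this assay, an IκBα–CBG68 fusion accumulates when IKK-driven degradation is blocked; native CBR normalizes for cell number. OCI-Ly3 cells were treated 4 h with compound and doxycycline, then green and red light read after Chroma-Glo addition.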
# Potency is the fitted concentration of half-maximal effect.
Compound,IkBa stabilization activation,Potency
COc1ccccc1OCC(=O)N(Cc1nc(-c2ccccc2)no1)C1CCCCC1,inconclusive: 1.3% [signal inhibitor],
Cc1noc(C)c1COC(=O)c1ccc2c(c1)OCO2,inactive: 0.404%,
O=C(c1ccc(F)cc1F)N1CCC(c2nc(-c3ccc(S(=O)(=O)N4CCCC4)cc3)no2)CC1,inconclusive: 3.88% [signal inhibitor],
COC(=O)c1cc(-c2ccc(OC)c(OC)c2)n[nH]1,inactive: 0.0875%,
COc1cc(Cl)c(C)cc1NC(=O)CCc1c(C)nc2c3cccnc3nn2c1C,inconclusive: 1.46% [signal inhibitor],
O=C1CC(c2ccco2)Cc2nc(N3CCc4ccccc4C3)ncc21 (stereo unspecified),inconclusive: -2.26% [signal inhibitor],
O=C(Nc1ccc(C(=O)N2CCCCC2)cc1)c1nsc2ccccc12,,"inconclusive: 1 µM [signal inhibitor, full curve]"
O=C(Nc1nc2n(n1)C(c1ccccc1)C=C(c1ccccc1)N2)c1ccccc1 (stereo unspecified),inconclusive: 7.15% [signal inhibitor],
COc1ccc(CNC(=O)C(CCSC)NS(=O)(=O)c2ccc3c(c2)oc(=O)n3C)cc1 (stereo unspecified),inactive: 0.956%,
Fc1ccc(Nc2nc(SCc3cccc(Cl)c3)nc3ccccc23)cc1,inconclusive: -0.569% [signal inhibitor],
Cc1oc(-c2ccc3c(c2)OCCO3)cc1C(=O)O,inconclusive: -2.72% [signal inhibitor],
Cc1ccc(C2CC(=O)N3CN(c4ccc(Br)cc4)CSC3=C2C#N)o1 (stereo unspecified),inactive: 8.26%,
COc1ccc2[nH]c(=O)c(C(c3nnnn3C3CCCC3)N(C)C3CCCCC3)cc2c1 (stereo unspecified),inconclusive: 2.19% [signal inhibitor],
CCc1nnc2c(N3CCN(c4cccc(C(F)(F)F)c4)CC3)nc3ccccc3n12,inconclusive: 0.618% [signal inhibitor],
O=C1CC(c2ccccc2)Cc2nc(NCc3ccco3)ncc21 (stereo unspecified),inactive: 7.73%,
COc1ccc(N(CC(=O)N2CCc3ccccc3C2)S(=O)(=O)c2ccc(C)cc2)cc1Cl,inconclusive: 4.74% [signal inhibitor],
COc1ccc(C2=C(C(C)=O)Sc3nnc(-c4ccc(Cl)cc4)n3N2C(C)=O)cc1OC,inconclusive: 2.48% [signal inhibitor],
O=C(Nc1c(C(=O)N2CCN(c3ccccc3F)CC2)oc2ccccc12)c1ccco1,inconclusive: -0.39% [signal inhibitor],
CNC(=O)[C@@H]1O[C@@H](n2cnc3c(N)ncnc32)[C@@H](O)[C@H]1O,inconclusive: 0.575% [signal activator],
NCCSCCC(=O)O,"inactive: -0.683% [at 11.4 µM, scaled: untreated 0%, proteasome inhibitor 100%]",
N#CC1=C2SCN(C3CCCCC3)CN2C(=O)CC1c1ccc(Br)cc1 (stereo unspecified),inconclusive: 2.2% [signal inhibitor],
COc1ccc(-n2nc3cc(C)c(N)c(Br)c3n2)cc1,inconclusive: 15.3%,
CC(C)N(Cc1ccccc1)S(=O)(=O)c1n[nH]c(C(C)(C)C)n1,"inactive: -0.802% [at 11.4 µM, scaled: untreated 0%, proteasome inhibitor 100%]",
O=C(NCc1ccncc1)c1ccc(Br)cc1,inactive: -0.671%,

Compound,IkBa stabilization activation,Potency
O=C1c2ccccc2C(=O)N1CCCCN(C(=O)c1ccco1)c1ccc(Cl)cc1,inconclusive: -2.68% [signal inhibitor],
COc1ccc(NCc2cccn2-c2nnc(N3CCC(C)CC3)s2)c(OC)c1,inconclusive: 8.22% [signal inhibitor],
O=C(CSc1nc2c(c(=O)[nH]1)CCC2)Nc1cc(C(F)(F)F)ccc1Cl,inconclusive: -0.993% [signal inhibitor],
Cc1cccc(-c2nc(S(=O)(=O)c3ccccc3)c(N3CCN(c4ccccc4)CC3)o2)c1,inactive: -0.779%,
COc1ccc2[nH]cc(CCNc3cc(-c4ccc5c(c4)OCO5)ncn3)c2c1,"inactive: -2.4% [at 11.4 µM, scaled: untreated 0%, proteasome inhibitor 100%]",
COc1ccc(-c2csc(Cc3nnc4n3CCCCC4)n2)cc1OC,inactive: -0.0211%,
COc1c(Cl)cc(Cl)cc1C(=O)Nc1cccc2cccnc12,,inconclusive: 25.1 µM [signal inhibitor]
CCOC(=O)c1cc(S(=O)(=O)Nc2cc(C)c(Cl)cc2OC)[nH]n1,inconclusive: -0.492% [signal inhibitor],
Cc1ccn2c(CCc3nnc4cc(C)ccn34)nnc2c1,"inactive: 0.593% [at 11.4 µM, scaled: untreated 0%, proteasome inhibitor 100%]",
CCc1nnc(NC(=O)c2nc(SCc3ccc(F)cc3)ncc2Cl)s1,inconclusive: 6.16% [signal inhibitor],
CCOc1ccc(OCC)c(NS(=O)(=O)c2ccc3c(c2)CCCN3C(C)=O)c1,inactive: -0.699%,
CCCCn1c(C2CC(=O)N(c3ccc(OCC)cc3)C2)nc2ccccc21 (stereo unspecified),inconclusive: 1.33% [signal inhibitor],
CCOC(=O)N1CCN(Cc2cc(=O)oc3ccc4ccccc4c23)CC1,inactive: 0.434%,
CCOCCn1c(=NC(=O)c2ccc3c(c2)OCCO3)sc2cc(OCC)ccc21,inconclusive: -0.511% [signal inhibitor],
COCC(C)NC(=O)C1=CC(c2ccc3c(c2)OCO3)=NS(=O)(=O)N1C (stereo unspecified),inconclusive: -0.265% [signal inhibitor],
O=C(Nc1ccccc1C(F)(F)F)C1CCN(c2nnc(-n3cccc3)s2)CC1,inconclusive: 4.07% [signal inhibitor],
Cc1cccc(S(=O)(=O)c2cn(Cc3ccc(F)cc3)c3cc(N4CCOCC4)c(F)cc3c2=O)c1,inconclusive: -0.882% [signal inhibitor],
O=C(Cn1cc(SCc2ccc(F)cc2)c2ccccc21)N1CCCC1,inconclusive: 9.98% [signal inhibitor],
CCN(CC)S(=O)(=O)c1ccc2c(c1)c(=O)c(C(=O)N1CCN(c3cc(C)ccc3C)CC1)cn2C,inconclusive: -2.85% [signal inhibitor],
Cc1nc(NC(=O)c2ccccc2)sc1-c1csc(N)n1,inconclusive: 4.15% [signal inhibitor],
NCCNS(=O)(=O)c1cccc2c(Cl)cccc12,inconclusive: 2.52% [signal inhibitor],
CCc1ccc2[nH]c(=O)c(C(c3nnnn3CC3CCCO3)N3CCCc4ccccc43)cc2c1 (stereo unspecified),inconclusive: 3.46% [signal inhibitor],
Cc1nc2cc(NC(=O)NCc3ccc4c(c3)OCO4)ccc2o1,inactive: 5.36%,
CCN(CC)CCNC(=O)Cc1nn(CC)c(=O)c2ccccc12,inactive: 0.231%,

Compound,IkBa stabilization activation,Potency
Cc1cc(C)c(NS(=O)(=O)c2ccc3c(c2)NC(=O)CCS3)c(C)c1,inconclusive: 2.44% [signal inhibitor],
CCc1ccccc1NS(=O)(=O)c1ccc(SC)cc1,inconclusive: 1.87% [signal inhibitor],
COc1ccccc1N1CCN(C[C@@H](O)COc2cccc3ccccc23)CC1,inconclusive: 0.713% [signal inhibitor],
COC(=O)C1=C(C)NC(C)=C([N+](=O)[O-])[C@@H]1c1ccccc1C(F)(F)F,inconclusive: 1.25% [signal inhibitor],
CCCCN(CCCNC(=O)c1c(C)cc(=O)oc1C)c1ccccc1,inconclusive: 3.92% [signal inhibitor],
CC(=O)c1ccc(NC(=O)CSc2nnc(NC(=O)NC3CCCCC3)s2)cc1,inconclusive: 5.98% [signal inhibitor],
O=C(COc1ccccc1Cl)Nc1ccc2c(c1)OCCO2,inconclusive: 3% [signal inhibitor],
CCCCCOc1ccccc1Cn1c(=O)oc2ccc(C)cc21,inactive: -0.28%,
Cc1nn(C(C)C(=O)Nc2cccc(F)c2)c(=O)c2c1sc1ccccc12 (stereo unspecified),inconclusive: 0.813% [signal inhibitor],
Cc1ccc(Nc2c(-c3ccc(N4CCOCC4)cc3)nc3ncccn23)c(C)c1,inconclusive: 3.34% [signal inhibitor],
CC(C)C(c1nnnn1Cc1ccccc1)N1CCN(Cc2ccc3c(c2)OCO3)CC1 (stereo unspecified),inconclusive: 0.789% [signal inhibitor],
Cc1sc2ncn3ncnc3c2c1C,inconclusive: 1.16% [signal inhibitor],
COc1ccc(-n2nnnc2SCC(=O)NCCc2ccccc2)cc1,inactive: -2.75%,
NC(=O)C1CCN(c2ncnc3c2cnn3-c2cccc(Cl)c2)CC1,inactive: 0.85%,
CC(C)COc1ccc(C(=O)Nc2onc3c2CCCC3)cc1,inactive: -1.96%,
CCc1ccc(N2CC(c3nc4ccccc4n3Cc3ccccc3C)CC2=O)cc1 (stereo unspecified),inconclusive: -1.07% [signal inhibitor],
CCOc1ccc(C(=O)NCCc2sc(-c3cccc(F)c3)nc2C)cc1OCC,inconclusive: 2.8% [signal inhibitor],
CCOC(=O)c1cnc2ccc(OC(F)(F)F)cc2c1Nc1ccccc1C(=O)O,inconclusive: -3.28% [signal inhibitor],
Cc1ccc(NC(=O)CCCN2C(=O)COc3ccc(C)cc32)c(Cl)c1,inconclusive: 2.82% [signal inhibitor],
c1ccc(N2CCN(c3ncnc4c3oc3ccccc34)CC2)cc1,inconclusive: -2.69% [signal inhibitor],
CCCCC#Cc1nc(NC)c2ncn([C@@H]3O[C@@H](CO)[C@H](O)[C@H]3O)c2n1,inactive: 0.932%,
COc1ccc(OC)c(NS(=O)(=O)c2ccc(SC)cc2)c1,inactive: 1.76%,
CCC(C)NC(=O)c1c(N)n(/N=C/c2cccnc2)c2nc3ccccc3nc12 (stereo unspecified),,"inconclusive: 7.94 µM [signal inhibitor, partial curve]"

# From PubChem BioAssay AID445 (National Center for Advancing Translational Sciences (NCATS), 2006)
